Laboratory results taken from PubChem BioAssay AID1948 (National Center for Advancing Translational Sciences (NCATS), 2009).
In all, about 110,000 compounds went through this assay and about 20 (0.02%) were called active. This list was built around the results that the source calls inconclusive (neither active nor inactive); the mix of calls is not that of the screen. The call rests on the fitted dose curve; in most records, active means well fitted activation curve with a large enough effect; inconclusive means small, poorly fitted or top-dose-only effect; inactive means no such curve, though single readings can be large or run the other way. No potency is given beside an inconclusive call; the fits are too rough.

test: qHTS Assay for Compounds that Induce Erasure of Genomic Imprints; conditions: mouse ES Peg3-LacZ reporter, beta-gal luminescence, 40 h; activity change, positive = activation: at 10.9 µM (top of the series) unless noted;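 on activity change, positive = activation: 0% = negative control wells on the plate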
Method in brief: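 Gelatin-coated wells received 300 freshly trypsinized female ES cells with a Peg3LacZ-Neo reporter on the maternal allele, then incubated 40 hours at 37C. BetaGlo was added for 5 minutes at room temperature before a single luminescence read.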
Potency means the concentration at half of the fitted maximal effect; tags describe the fitted curve by direction and shape.

| Structure (SMILES) | Potency | activity change, positive = activation |
| --- | --- | --- |
| O=C1c2cccnc2C(=O)N1Cc1ccc(F)cc1 | inconclusive [activator, single point] | – |
| COc1ccccc1C(=O)Nc1c2c(nn1-c1cccc(C)c1C)CS(=O)(=O)C2 | – | inactive: 3.63% [at 60.7 µM] |
| CCOC(=O)c1cc(CC)sc1NC(=O)Cc1ccsc1 | inconclusive [activator, single point] | – |
| COc1ccc(N(CC(=O)N2CCc3ccccc3C2)S(=O)(=O)c2c(C)[nH]c(=O)[nH]c2=O)cc1 | inconclusive [activator, single point] | – |
| Cc1ccc(CN2CCCn3nc(C(=O)NCc4ccc(OC(C)C)cc4)cc3C2=O)cc1 | – | inactive: -12.4% |
| COc1ccc(NC(=O)N2CCc3c(sc4c3CCCC4)C2c2ccccc2OC)cc1 (stereo unspecified) | – | inactive: -17% |
| CCCCCn1c(=NC(C)=O)c(C#N)cc2c(=O)n3cccc(C)c3nc21 | – | inactive: -5.99% [at 60.7 µM] |
| COc1ccc2[nH]cc(CCNC(=O)Nc3cc(C)cc(C)c3)c2c1 | – | inconclusive: 35.2% [activator] |
| COc1ccc(CNC(=O)C(C#N)c2nc3ccccc3nc2N2CCN(C)CC2)cc1 (stereo unspecified) | – | inactive: -11.5% [at 60.7 µM] |
| Cc1nc2cncnc2n(Cc2ccccc2)c1=O | inconclusive [activator, full curve, poor fit] | – |
| CC(=O)Nc1sc2c(c1C#N)CC(C)(C)NC2(C)C | inconclusive [activator, single point] | – |
| Cc1ccccc1OCC(=O)Nc1ccc2nc(SCC(=O)N3CCCC3)sc2c1 | – | inactive: -13.1% |
| COCCn1ccc2c(OCC(=O)Nc3cccc(C(F)(F)F)c3)cccc2c1=O | – | inconclusive: 49.5% [activator] |
| C=C1CCC2C(CC2(C)C)C(=C)CC/C1=N/O (stereo unspecified) | inconclusive [activator, single point] | – |
| CCOc1ccc(Nc2nc3c(S(=O)(=O)c4ccc(CC)cc4)nnn3c3ccc(Cl)cc23)cc1 | – | inconclusive: 92.1% [activator] |
| COc1ccc(Cl)cc1N=C1NC(=O)CC(C(=O)Nc2ccccc2C(F)(F)F)S1 (stereo unspecified) | – | inactive: -2.64% |
| Fc1ccc(-c2nc3c4c(-c5ccccc5)c(-c5ccccc5)oc4ncn3n2)cc1 | – | inconclusive: 30.9% [activator] |
| CCOC(=O)CNC(=O)Nc1cc(C(=O)NCc2ccc(C(C)C)cc2)ccc1N1CCCC1 | – | inactive: -8.51% |
| CN(C)C(=O)c1ccc(-c2cncnc2N2CCNCC2)cc1 | – | inactive: 7.86% [at 60.7 µM] |
| COc1ccc(/C=C/C(=O)c2cccs2)cc1OC | – | inactive: 5.24% [at 60.7 µM] |
| NS(=O)(=O)c1cc2c(cc1Cl)NCNS2(=O)=O | inconclusive [activator, full curve, poor fit] | – |
| COc1ccccc1CNC(=O)C(=O)NCC(c1cccs1)S(=O)(=O)c1cccs1 (stereo unspecified) | – | inconclusive: 31.8% [activator] |
| COc1cccc(CNS(=O)(=O)c2c(C(=O)N3CCC(C)CC3)c(C)n(C)c2C)c1 | – | inactive: -4.99% |
| CCCC(=O)Nc1ccc(NC(=O)c2ccccc2OC)cn1 | – | inactive: -13.9% [at 60.7 µM] |
| Fc1ccc(Nc2ccnc(-c3ccoc3)n2)cc1 | – | inactive: -7.28% [at 60.7 µM] |
| CCNc1ncc2nc(-c3ccc(Cl)cc3)c(=O)n(C)c2n1 | inconclusive [activator, single point] | – |

| Structure (SMILES) | Potency | activity change, positive = activation |
| --- | --- | --- |
| COC(=O)CNc1c(-c2ccccn2)nc2ccc(Br)cn12 | – | inactive: -90.3% [at 60.7 µM] |
| CCOc1ccc(-c2c(C)nn3c(C)c(C(=O)Nc4cc(C)cc(C)c4)cnc23)cc1OCC | – | inconclusive: 36.2% [activator] |
| CCNc1ncc2nc(-c3cn(C)c4ccccc34)c(=O)n(-c3ccccc3)c2n1 | inconclusive [activator, full curve, poor fit] | – |
| COc1ccc(S(=O)(=O)N(C)CC(=O)NC2CCCCC2)cc1OC | inconclusive [activator, single point] | – |
| CCN(CC)C(=O)c1sc2c(c1C)c(=O)n(CCc1ccccc1)c(=O)n2Cc1cc(C)ccc1C | – | inactive: -11.4% |
| Cc1cc(C)c2cc(CN(CCO)C(=O)Nc3ccc(Cl)cc3)c(=O)[nH]c2c1 | – | inactive: -7.31% [at 60.7 µM] |
| Nc1cc(S(N)(=O)=O)ccc1SSc1ccc(S(N)(=O)=O)cc1N | – | inactive: 18.1% |
| Cc1cccc(N2C(=O)CS(=O)(=O)C23C(=O)N(Cc2c(F)cccc2Cl)c2ccccc23)c1 (stereo unspecified) | – | inactive: 9.23% |
| COc1ccc2oc(=O)c(C(=O)Nc3ccc(C(=O)O)cc3)cc2c1 | – | inconclusive: 31.8% [activator] |
| CC(=O)NC(C(=O)O)C(C)(C)SN=O (stereo unspecified) | – | inactive: 1.87% [at 60.7 µM] |
| Cc1ccccc1CN1C(=O)C2(c3ccccc31)N(c1ccccc1)C(=O)CS2(=O)=O (stereo unspecified) | – | inactive: 8.49% |
| CC(=O)NCCNc1nc(-c2c(C)noc2C)nc2ccccc12 | inconclusive [activator, single point] | – |
| CC(=O)c1ccc(Nc2cc(C)nc3nc(Cc4ccc(Cl)cc4)nn23)cc1 | – | inconclusive: 31.8% [activator] |
| Nc1nc(-c2nc3ccccc3[nH]2)cs1 | – | inactive: -81.8% [at 60.7 µM] |
| CN(C)c1ccc(CNC(=O)c2ccccc2NC(=O)c2nsc3ccccc23)cc1 | – | inconclusive: 44.9% [activator] |
| CCC(Sc1nc2ccncc2[nH]1)C(=O)Nc1ccc(F)cc1 (stereo unspecified) | – | inconclusive: 34.8% [activator] |
| COc1cccc(-c2ccc3ncnc(Nc4ccccc4)c3c2)c1 | inconclusive [activator, single point] | – |
| COc1ccc(C2c3c(oc4ccccc4c3=O)C(=O)N2Cc2ccncc2)cc1OC (stereo unspecified) | inconclusive [activator, single point] | – |
| Cc1cc(C(=O)Nn2cnnc2)cs1 | inconclusive [activator, single point] | – |
| O=C(O)CCCC(=O)Nc1nc(-c2ccccc2)cs1 | – | inactive: -49.1% [at 60.7 µM] |
| Cc1ccc(N2C(=O)c3ccc(C(=O)N4CCN(c5ccccc5F)CC4)cc3C2=O)cc1 | inconclusive [activator, single point] | – |
| COc1cccc(OCc2nc3ccccc3n2Cc2ccccc2C)c1 | – | inactive: -7.44% |
| CNc1cc(-c2ccccc2C)ncn1 | inconclusive [activator, single point] | – |
| COc1ccc(NC(=O)c2c(NC(=O)COc3ccccc3)sc3c2CCC(C)C3)cc1 (stereo unspecified) | – | inconclusive: 32.2% [activator] |
| Cc1ccc(NC(=O)CSc2nnc3[nH]c(=O)cc(-c4ccccc4)n23)cc1Cl | – | inactive: -12.8% |
| CC(=O)N=c1sc(C(C)(C)C)c(C)n1C | inconclusive [activator, single point] | – |

| Structure (SMILES) | Potency | activity change, positive = activation |
| --- | --- | --- |
| COCCCNC(=O)c1ccc(-n2c(-c3ccccc3)cc3c2CCC(C)C3)cc1 (stereo unspecified) | – | inconclusive: 31.9% [activator] |
| CC(=O)Nc1nc(-c2ccccc2)nc(-c2ccccc2OC(C)=O)n1 | – | inactive: -5.47% [at 60.7 µM] |
| COc1ncc2nc(-c3ccc(F)cc3)c(=O)n(-c3ccccc3)c2n1 | inconclusive [activator, partial curve, poor fit] | – |
| Cc1ccccc1OCC(=O)Nc1ccc2nc(SCc3ccccc3)sc2c1 | – | inconclusive: 31.8% [activator] |
| O=C(C1CCCCC1)N1CCCC(c2nc3c(nnn3Cc3ccccc3)c(=O)[nH]2)C1 (stereo unspecified) | – | inactive: -1.76% [at 60.7 µM] |
| CCOc1ccc(NC(=O)C2CCCN(c3nnc(C)c4c(C)n(-c5ccccc5)nc34)C2)cc1 (stereo unspecified) | – | inconclusive: 37.8% [activator] |
| CCC(c1nnnn1C1CCCCC1)N1CCN(C2CCCC2)CC1 (stereo unspecified) | – | inactive: 1.41% [at 60.7 µM] |
| N#Cc1ccsc1NC(=O)CSc1ncnc2ccccc12 | inconclusive [activator, partial curve] | – |
| Cc1ccc2nc(-c3ccc(NC(=O)c4ccc(S(C)(=O)=O)cc4)cc3)sc2c1 | – | inconclusive: 70.8% [activator] |
| Cc1c(C(=O)Nc2cccc(-c3nc4ccccc4s3)c2)oc2ccccc12 | – | inactive: 10.4% |
| COc1ccc(-c2nc3cnc(OC)nc3n(-c3ccccc3)c2=O)cc1 | inconclusive [activator, single point] | – |
| CCC(=O)N1CCc2cc(CNS(=O)(=O)c3ccc(Br)s3)ccc21 | – | inconclusive: 40% [activator] |
| O=C1c2ccccc2-c2nc3ncnn3c(-c3ccccc3Cl)c21 | – | inactive: -3.45% [at 60.7 µM] |
| c1ccc(-c2nc3nonc3nc2-c2ccccc2)cc1 | – | inactive: -27.1% [at 60.7 µM] |
| O=C(CCC(=O)N1CCSc2ccccc21)NCc1ccccc1Cl | – | inactive: -10.9% |
| CCOc1ccc(-n2c(SCC(=O)Nc3ccc4c(c3)OCCO4)nc3c([nH]c4ccccc43)c2=O)cc1 | – | inconclusive: 78.7% [activator] |
| COc1cccc(Nc2ncc3nc(-c4ccccc4)c(=O)n(Cc4cccs4)c3n2)c1 | inconclusive [activator, single point] | – |
| O=S(=O)(c1ccc(Cl)cc1)c1nc(-c2ccccc2)oc1N1CCN(c2ccccc2)CC1 | – | inconclusive: 34% [activator] |
| CCn1c(/C(C#N)=C/c2ccccc2Cl)nc2ccccc21 | – | inactive: -10.8% |
| Cc1ccc(C(=O)Nc2ccc(S(=O)(=O)O)c3cc(S(=O)(=O)O)cc(S(=O)(=O)O)c23)cc1NC(=O)c1cccc(NC(=O)Nc2cccc(C(=O)Nc3cc(C(=O)Nc4ccc(S(=O)(=O)O)c5cc(S(=O)(=O)O)cc(S(=O)(=O)O)c45)ccc3C)c2)c1 | inconclusive [activator, single point] | – |
| CCCc1cc(=O)[nH]c2nnc(SCC(=O)Nc3ccc(OC)cc3)n12 | – | inconclusive: 80.8% [activator] |
| Cc1noc(C)c1-c1cc(N2CCN(C)CC2)ncn1 | inconclusive [activator, single point] | – |
| O=C1CC(c2cc3c(cc2Br)OCO3)C2=C(CCCC2=O)N1 (stereo unspecified) | inconclusive [activator, single point] | – |
| Fc1ccc(Nc2ncnc3onc(-c4cccc(Cl)c4)c23)c(F)c1 | – | inactive: -8.4% |
